SMILES strings stand for the structures. This is one part of the list.

The experiment deals with S. aureus RN4220. Description: growth inhibition call (relative growth <= 0.2). The settings on record: 50 µM.
For `Nc1nc(/C(=C/CC(=O)O)C(=O)N[C@@H]2C(=O)N3C(C(=O)O)=CCS[C@H]23)cs1`, the growth inhibition call is “inactive”. The entry for `CC[C@@]1(C)CC(=O)NC1=O` is “inactive”. The entry for `C[C@@H]1CN([C@@H](C)CO)C(=O)Cc2cc(NS(=O)(=O)c3cccs3)ccc2O[C@H]1CN(C)S(C)(=O)=O` is “inactive”; for `COc1ccc2c3c([nH]c2c1)[C@H](CO)N(C[C@]13CCN(CC1)CC1CCCC1)C(=O)CN1CCOCC1` it is “inactive”.

With `C[C@@H]1CN([C@@H](C)CO)C(=O)Cc2cc(NC(=O)NC3CCCCC3)ccc2O[C@H]1CN(C)Cc1ccc(C(=O)Nc2ccccc2N)cc1`, the growth inhibition call is “inactive”. The entry for `C[C@@H]1CN([C@H](C)CO)C(=O)Cc2cc(NC(=O)C3CC3)ccc2O[C@@H]1CN(C)Cc1ccc(Oc2ccccc2)cc1` is “inactive”; for `C[C@H](CO)N1C[C@H](C)[C@H](CN(C)C(=O)Nc2ccc(F)cc2)Oc2ccc(NS(C)(=O)=O)cc2CC1=O` it is “inactive”. The entry for `COC(=O)c1ccc(C(=O)OC)nc1` is “inactive”; for `CCOC(=O)CCCCCC(=O)Nc1ccc2c(c1)C(=O)N([C@@H](C)CO)C[C@H](C)[C@H](CN(C)S(C)(=O)=O)O2` it is “inactive”. The value for `Cc1ccc(S(=O)(=O)N(C)C[C@H]2Oc3ccc(NC(=O)Nc4cccc5ccccc45)cc3CC(=O)N([C@H](C)CO)C[C@@H]2C)cc1` was “inactive”; that for `COCCOC(=O)N1C(=O)[C@@]2(c3cc(C#CCC(C(=O)OC)C(=O)OC)ccc31)[C@H](C(=O)Nc1nc3ccccc3s1)[C@H]1C(=O)O[C@H](c3ccccc3)[C@H](c3ccccc3)N1[C@@H]2c1ccccc1OCCO` was “inactive”; that for `O=C(C[C@@H]1C[C@H]2c3cc(NS(=O)(=O)c4ccc(F)cc4)ccc3O[C@H]2[C@H](CO)O1)NC1CCCCC1` was “inactive”.

On to `COc1ccc(CN(C)C[C@@H]2OCCCC[C@H](C)Oc3ccc(NS(=O)(=O)c4ccc(OC)cc4)cc3C(=O)N([C@H](C)CO)C[C@@H]2C)cc1`, for which the growth inhibition call is “inactive”. The value for `CN(C)CC#Cc1ccc([C@H]2[C@H](CO)N3CCCCN(C(=O)CN(C)C)C[C@@H]23)cc1` was “inactive”; that for `C[C@@H]1CN([C@@H](C)CO)C(=O)Cc2cc(NC(=O)Cn3cnnn3)ccc2O[C@H]1CN(C)C(=O)Nc1ccc2c(c1)OCO2` was “inactive”. The value for `COc1ccc([C@H]([C@@H](O)Cc2ccccc2)N(C/C=C/[C@@H](O)c2ccccc2)[C@@H](Cc2ccccc2)C(OC)OC)cc1` was “inactive”; that for `Cc1cc(C(=O)Nc2ccc3c(c2)C(=O)N(C)[C@H]2CC[C@@H](CC(=O)NCC(F)(F)F)O[C@H]2CO3)no1` was “inactive”; that for `CNC(=O)C[C@H]1CC[C@H]2[C@@H](COC[C@H](O)CN2C(=O)c2ccc3c(c2)OCO3)O1` was “inactive”. The value for `C[C@H]1CN([C@@H](C)CO)C(=O)c2cc(NS(=O)(=O)c3cn(C)cn3)ccc2O[C@H]1CN(C)CC1CCCCC1` was “inactive”; that for `C[C@@H]1CCCCO[C@@H](CN(C)S(=O)(=O)c2ccccc2)[C@H](C)CN([C@@H](C)CO)C(=O)c2cc(NC(=O)Nc3ccc(F)cc3)ccc2O1` was “inactive”; that for `C[C@@H]1CCCCO[C@@H](CN(C)C(=O)Cc2ccccc2)[C@@H](C)CN([C@H](C)CO)C(=O)c2cc(NC(=O)c3ccccc3)ccc2O1` was “inactive”. `COc1ccc(-c2cnc3c(c2)C(=O)N([C@H](C)CO)C[C@@H](C)[C@H](CN(C)S(=O)(=O)c2ccc(OC)cc2)O3)cc1`: the growth inhibition call was “inactive”. The value for `CC(C)N1C(=O)c2cccc(NC(=O)c3ccncc3)c2O[C@H](CN(C)Cc2ccc(Cl)cc2)[C@H]1C` was “inactive”.

On to `Cc1noc(C)c1NC(=O)N(C)C[C@@H]1Oc2ccc(NS(=O)(=O)c3c(C)noc3C)cc2C(=O)N([C@@H](C)CO)C[C@@H]1C`, for which the growth inhibition call was “inactive”.

In the case of `Cl.NC12CC3CC(CC(C3)C1)C2`, the growth inhibition call was “inactive”. The value for `Clc1ccc(CSC(Cn2ccnc2)c2ccc(Cl)cc2Cl)cc1.O=[N+]([O-])O` (stereo not given) was “inactive”. The value for `C[C@@H]1CN([C@@H](C)CO)C(=O)c2cccc(NC(=O)Nc3ccc(C(F)(F)F)cc3)c2O[C@H]1CN(C)Cc1ccc(Oc2ccccc2)cc1` was “inactive”. The value for `C[C@@H]1CN([C@@H](C)CO)C(=O)Cc2cc(NC(=O)Cc3cn(C)c4ccccc34)ccc2O[C@@H]1CN(C)S(C)(=O)=O` was “inactive”; that for `CN(C)c1ccc(O)c2c1C[C@@H]1C[C@@H]3[C@@H](N(C)C)C(=O)C(C(N)=O)=C(O)[C@]3(O)C(=O)[C@H]1C2=O` was “inactive”. In the case of `C[C@@H]1CN([C@@H](C)CO)C(=O)c2cc(N(C)C)ccc2O[C@@H](C)CCCCO[C@H]1CN(C)Cc1ccc(C(F)(F)F)cc1`, the growth inhibition call was “inactive”. The value for `C[C@H]1CCCCO[C@@H](CN(C)Cc2ccccc2)[C@@H](C)CN([C@@H](C)CO)C(=O)c2cc(NS(=O)(=O)c3ccc(Cl)cc3)ccc2O1` was “inactive”; that for `CCCC#Cc1cnc2c(c1)C(=O)N([C@H](C)CO)C[C@H](C)[C@H](CN(C)C(=O)c1ccc3c(c1)OCO3)O2` was “inactive”. Turning to `CC(C)NC(=O)Nc1ccc2c(c1)C(=O)N([C@H](C)CO)C[C@@H](C)[C@H](CN(C)S(=O)(=O)c1cn(C)cn1)OCCCC[C@@H](C)O2`, the growth inhibition call is “inactive”. `C[C@@H]1CCCCO[C@H](CN(C)CC2CCCCC2)[C@H](C)CN([C@H](C)CO)C(=O)c2cc(NC(=O)CCCN(C)C)ccc2O1`: the growth inhibition call was “inactive”. Regarding `COCC(=O)N1C[C@@H](C(=O)N2CCCO2)C[C@@H]2OCC[C@@H]21`, the growth inhibition call was “inactive”. The value for `Cc1noc(C)c1S(=O)(=O)Nc1ccc2c(c1)C(=O)N([C@H](C)CO)C[C@H](C)[C@@H](CN(C)C(=O)Nc1ccc(C(F)(F)F)cc1)OCCCC[C@@H](C)O2` was “inactive”; that for `C[C@@H]1CN([C@H](C)CO)C(=O)Cc2cc(NC(=O)CCC(F)(F)F)ccc2O[C@H]1CN(C)Cc1ccc(C(F)(F)F)cc1` was “inactive”; that for `COCC#Cc1cnc2c(c1)C(=O)N([C@@H](C)CO)C[C@H](C)[C@@H](CN(C)C(=O)Nc1ccc(OC)cc1)O2` was “inactive”. The value for `O=C(C[C@@H]1CC[C@@H]2[C@H](COC[C@@H](O)CN2S(=O)(=O)c2ccccc2)O1)N1CCc2ccccc2C1` was “inactive”; that for `C[C@H](CO)N1C[C@H](C)[C@@H](CN(C)C(=O)c2cccc(F)c2)Oc2cc(-c3cncnc3)ccc2S1(=O)=O` was “inactive”.

The values are drawn from the antibiotic and cytotoxicity screens of Wong et al. (2023).
